Experimental data published in the supplement of paper PMC5499739.
In all, about 16,000 sequences were measured (“Z-score”: median about -0.37, highest 2% from about 3.2 on). This is one part of the list.

system: RBM10 RRM1-ZnF (GST-tagged construct); test: RNAcompete 7-mer binding Z-score; higher = stronger binding preference
Outline: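 GST-tagged RBM10 constructs (20 pmol) were mixed with a designed pool of 241 399 RNAs up to 41 nt (1.5 nmol), transcribed from microarray-derived DNA templates. Mixing was in 1 ml Hepes pH 7.8 buffer with KCl, NaCl, glycerol, DTT, BSA and glutathione Sepharose beads. Binding ran 30 min at 4°C, followed by four 2-min washes at 4°C, and bound RNA was identified by microarray hybridisation. Each heptamer motif received a one-sided Z-score for enrichment across probes containing it.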

Sequence	RNAcompete 7-mer binding Z-score
GGUGUUG	2.26
GCACGCU	-0.522
GAGGGGG	2.9
CCACGCG	-0.431
GGGUUGA	3.8
UAUCCCG	-0.792
UACGACA	-0.405
AUCCGGG	0.472
GCCCCGG	0.426
CUAUGCC	-0.798
UGUGGUG	1.84
UAAUGCA	-0.386
ACCUAGG	0.0885
CCGUACA	-0.642
CUCGAUC	-0.691
ACUAAAU	-0.522
UACUGGA	0.251
AGCCACA	-0.668
AAUUCGA	-0.584
AAAAGCG	0.378
GUACUGU	-0.0804
CCUCGCG	-0.483
GCAUUAC	-0.431
GGUGCUC	0.605

Sequence	RNAcompete 7-mer binding Z-score
AGGGAGU	2.96
GGUGCGU	1.41
GCAUAUA	-0.178
ACCUUAG	-0.642
GUGCAGA	0.482
UUCUAAA	-0.776
GUUUUGA	-0.214
GCCACUC	-0.73
UCGUGGC	-0.00896
GUGUAUU	0.0528
AUGGUCA	0.975
CACCGCG	0.069
CGACAUA	-0.506
UGAGAGG	1.94
AAGAUGG	2.94
AUCUUUG	-0.759
CUCCGAU	-0.74
ACCACGU	-0.366
AUAUAAA	-0.444
AGCAAAA	-0.175
UUGUACC	-0.62
CUCGCCA	-0.5
CAAUUAC	-0.75
GGGAGCA	2.14

Sequence	RNAcompete 7-mer binding Z-score
GUUUUAA	-0.47
GUGCUGU	-0.0707
GGUUUCG	1.04
UUCGACA	-0.665
CCCCCGU	-0.0155
GGUCGUA	0.241
AACGAAG	-0.194
CUAUCCA	-0.886
CUUAAUG	-0.451
GUACCCG	-0.444
UUCGGCU	-0.535
CUCUACU	-0.711
CCAUUGG	-0.558
ACCGUAG	-0.357
ACUACUA	-0.402
UGCAAAC	-0.337
GUUGCGU	0.257
GUCUGAG	-0.21
GUUGUCC	-0.272
GUCUCAU	-0.642
UAUACUA	-0.574
GACGUUU	-0.591
AUUAGAG	0.283
GAGAGCA	0.547

Sequence	RNAcompete 7-mer binding Z-score
UAUUUCU	-0.746
AUUCCCU	-0.756
UCACAGU	-0.448
GAUACUA	-0.175
UGACAGU	-0.207
AUUGCUA	-0.483
CAGCUGG	0.309
UAUCAGG	0.29
GAGCGAG	3.42
CAGGAUG	1.75
CGGCGUA	-0.0414
UGUGCCG	-0.227
GCUCUCU	-0.74
GUGCCUU	-0.597
CGAUCUU	-0.795
UAAAGUA	-0.249
CAGGCGU	0.433
UGUGCAA	-0.00896
AUAGAUU	-0.327
AUGUGCU	-0.21
CACCUCA	-0.542
UAUCUUC	-0.688
GCCCCAC	-0.441
UAGUAAC	-0.415

Sequence	RNAcompete 7-mer binding Z-score
ACCUGUG	-0.539
GCUUUUA	-0.737
UUCCGAG	-0.668
AUUAAUA	-0.487
GACAUCC	-0.668
GCCAGCU	-0.37
GGGCUAC	1
UAGCUGG	0.703
ACCAAUC	-0.815
AAGUUAU	-0.389
UUUGUGC	-0.672
UUUAUCU	-0.776
AGUUACA	-0.139
UCAUCCG	-0.808
GCUCACG	-0.269
CCACUGG	-0.152
GAGCGAC	0.192
AUGUGGA	2.27
ACGGGAC	1.69
UACCUCA	-0.72
CUAAUAA	-0.578
GCCAAUC	-0.629
GGUCGCC	0.0268
UAACACG	-0.305

Sequence	RNAcompete 7-mer binding Z-score
GGGUCGU	2.09
CUUAUAC	-0.867
GCACUCC	-0.477
UGGUGGU	2.8
UUAGUUG	-0.0707
GGCAAAA	0.576
GUUUGAU	-0.175
GAAUGCC	-0.331
UUACUAU	-0.737
UUGAGCG	0.329
UAAUCUG	-0.701
UCUGAUA	-0.701
UUACUGG	0.0365
GUUCGAG	-0.00571
CGGACAA	0.209
CAUCAAA	-0.672
GCCAAUU	-0.704
UUCUUCA	-0.815
AUAGGCC	-0.272
CGUUACG	-0.295
GGAGUCG	1.44
GCUACGA	-0.311
UGCUAAG	-0.0609
AUGCGUC	-0.587

Sequence	RNAcompete 7-mer binding Z-score
CGUCUCU	-0.636
GCUUCAU	-0.737
CGGCAAC	-0.301
GAUAACA	-0.0187
UCUAUCA	-0.584
CUUUUCG	-0.967
CGCUAUA	-0.646
GUAGAAC	0.54
UGCACGC	-0.405
CCCCCUC	-0.376
GCUCAGU	-0.597
AGACGAA	0.423
CGAUGGU	0.917
UCUAACU	-0.714
GAACAGU	-0.136
AUACUCC	-0.789
AAUGUAU	-0.301
UAACCCC	-0.535
AAUAGAC	-0.11
CGACAGA	-0.204
ACACGAC	-0.509
CCGUAUA	-0.776
CGUCUCG	-0.743
AUAGGCA	0.686

Sequence	RNAcompete 7-mer binding Z-score
AGCGCAU	-0.529
GUCAGCA	0.274
AGCUAAU	-0.49
UCUGCUA	-0.743
AGCACCA	-0.399
GCCAUCC	-0.72
AAGGUAG	3.69
CGAGUUG	0.0268
AACGGCG	0.43
GAAUAAA	0.017
UGCGGAU	0.371
GUAUGCU	-0.0122
CUAUGGA	0.0495
UCGCCUU	-0.844
CAAGCUA	-0.659
GUCUCUG	-0.347
UCCUACG	-0.581
UCUCCUG	-0.701
GACAAUC	-0.561
GAUGCUU	-0.678
GUGAGAC	0.897
GGUUCUG	0.615
AUGUACG	0.371
AAUCCUU	-0.883

Sequence	RNAcompete 7-mer binding Z-score
GUGGUGC	1.76
UCGGUGC	0.0918
CCGUAAC	-0.558
AUGCAGG	1.15
UACGGGG	3
GCGACGU	0.199
CGAUUAC	-0.474
GAAGCAG	1.08
GAGAGAG	1.11
GCUAGUG	0.121
CAGAAGC	-0.0512
UGCGUGU	-0.116
UUCAGCC	-0.828
ACUAUAA	-0.662
UAGCUUC	-0.802
UGUCCUC	-0.753
UGGGGAA	3.66
UUUCACA	-0.714
ACCUUCA	-1
UGAUCCG	-0.675
ACCUUCC	-0.919
UACUUAC	-0.464
AUCGUGC	-0.487
GGUAAUC	0.699

Sequence	RNAcompete 7-mer binding Z-score
UGUGAGG	2.01
GGGGCUC	1.3
GAUAAGC	0.199
UGCUUGG	0.0723
GGAGAAU	1.72
AAUGUAG	1.06
ACUAGUA	-0.435
CAUGGAU	1.48
CAGGAUC	0.0853
UGAAUUU	-0.591
UGACGCG	-0.0967
GAACUGA	-0.0772
UAGCACU	-0.288
UCUGGCU	-0.607
UAACUCU	-0.694
CCUGCAC	-0.639
AAAGUAC	-0.0122
GUUCGAC	-0.561
